# Assay results as given in the supplement of paper PMC8728848.
# This is one part of the list.
# Assays:
# Experiment in all cases: glycan array binding signal (z-score within array); higher = stronger binding
# Details in all cases: glycan notation: IUPAC condensed, linker removed
# [1] = target: Gal3S(b1-4)[Fuc(a1-3)]Glc6S
# In short: (§1)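 The binding signal is a Z-score computed within each array and averaged over linkers. Arrays of the same protein sequence at different concentrations or buffers were also averaged together. Data originate from 3228 arrays in the Consortium for Functional Glycomics database, kept only where the protein sequence was available.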
# [2] = target: Gal3S(b1-4)[Fuc(a1-3)]GlcNAc
# In short: as §1
# [3] = target: Gal3S(b1-4)[Fuc(a1-3)]GlcNAc6S
# In short: as §1
# [4] = target: Gal3S4S(b1-4)GlcNAc
# In short: as §1
# [5] = target: Gal3S6S(b1-4)GlcNAc
# In short: as §1
# [6] = target: Gal3S6S(b1-4)GlcNAc6S
# In short: as §1
# [7] = target: Gal4S(b1-4)GlcNAc
# In short: as §1
# [8] = target: Gal4S6S(b1-4)GlcNAc
# In short: as §1
# [9] = target: Gal6P(b1-4)GlcNAc
# In short: as §1
# [10] = target: Gal6S(b1-3)GlcNAc
# In short: as §1
# [11] = target: Gal6S(b1-3)GlcNAc6S
# In short: as §1
# [12] = target: Gal6S(b1-4)Glc
# In short: as §1
# [13] = target: Gal6S(b1-4)Glc6S
# In short: as §1
# [14] = target: Gal6S(b1-4)GlcNAc
# In short: as §1
# [15] = target: Gal6S(b1-4)GlcNAc6S
# In short: as §1
# [16] = target: GalNAc(a1-3)Gal
# In short: as §1
# [17] = target: GalNAc(a1-3)GalNAc
# In short: as §1
# [18] = target: GalNAc(a1-3)GalNAc(a1-3)Gal(a1-4)Gal(b1-4)GlcNAc
# In short: as §1
# [19] = target: GalNAc(a1-3)GalNAc(b1-3)Gal(a1-4)Gal(b1-4)Glc
# In short: as §1
# [20] = target: GalNAc(b1-3)Gal
# In short: as §1
# [21] = target: GalNAc(b1-3)Gal(a1-4)Gal(b1-4)GlcNAc
# In short: as §1
# [22] = target: GalNAc(b1-3)Gal(a1-4)Gal(b1-4)GlcNAc(b1-3)Gal(b1-4)Glc
# In short: as §1
# [23] = target: GalNAc(b1-3)Gal(a1-6)Gal(b1-4)Glc
# In short: as §1
# [24] = target: GalNAc(b1-3)GalNAc
# In short: as §1
# [25] = target: GalNAc(b1-3)GlcNAc
# In short: as §1
# [26] = target: GalNAc(b1-4)Gal(b1-4)Glc
# In short: as §1
# [27] = target: GalNAc(b1-4)GlcNAc
# In short: as §1
# [28] = target: GalNAc(b1-4)GlcNAc(b1-2)Man
# In short: as §1
# [29] = target: GalNAc(b1-4)GlcNAc(b1-2)Man(a1-3)[GalNAc(b1-4)GlcNAc(b1-2)Man(a1-6)]Man(b1-4)GlcNAc(b1-4)GlcNAc
# In short: as §1
# [30] = target: GalNAc(b1-4)GlcNAc(b1-3)GalNAc(b1-4)GlcNAc
# In short: as §1
# [31] = target: GalNAc(b1-4)GlcNAc6S
# In short: as §1
# [32] = target: GalNAc(b1-6)GalNAc
# In short: as §1
# [33] = target: GalNAc3S(b1-4)GlcNAc
# In short: as §1
# [34] = target: GalNAc3S(b1-4)GlcNAc3S
# In short: as §1
# [35] = target: GalNAc3S(b1-4)[Fuc(a1-3)]GlcNAc
# In short: as §1
# [36] = target: GalNAc4S6S(b1-4)GlcNAc
# In short: as §1
# [37] = target: GalNAc6S(b1-4)GlcNAc
# In short: as §1
# [38] = target: Glc(a1-4)Glc
# In short: as §1
# [39] = target: Glc(a1-4)Glc(a1-4)Glc(a1-4)Glc
# In short: as §1
# [40] = target: Glc(a1-6)Glc(a1-6)Glc
# In short: as §1
# [41] = target: Glc(a1-6)Glc(a1-6)Glc(a1-6)Glc
# In short: as §1
# [42] = target: Glc(b1-4)Glc
# In short: as §1
# [43] = target: Glc(b1-6)Glc
# In short: as §1
# [44] = target: GlcA(b1-3)Gal
# In short: as §1
# [45] = target: GlcA(b1-3)GlcNAc
# In short: as §1
# [46] = target: GlcA(b1-6)Gal
# In short: as §1
# [47] = target: GlcA3S(b1-3)Gal(b1-4)GlcNAc(b1-2)Man
# In short: as §1
# [48] = target: GlcA3S(b1-3)Gal(b1-4)GlcNAc(b1-3)Gal(b1-4)Glc
# In short: as §1
# [49] = target: GlcNAc(a1-3)Gal(b1-4)GlcNAc
# In short: as §1
# [50] = target: GlcNAc(a1-4)Gal(b1-3)GlcNAc
# In short: as §1
# [51] = target: GlcNAc(a1-4)Gal(b1-4)GalNAc
# In short: as §1
# [52] = target: GlcNAc(a1-4)Gal(b1-4)GlcNAc
# In short: as §1
# [53] = target: GlcNAc(a1-4)Gal(b1-4)GlcNAc(b1-3)Gal(b1-4)Glc
# In short: as §1
# [54] = target: GlcNAc(a1-4)Gal(b1-4)GlcNAc(b1-3)Gal(b1-4)GlcNAc
# In short: as §1
# [55] = target: GlcNAc(a1-4)Gal(b1-4)GlcNAc(b1-3)Gal(b1-4)GlcNAc(b1-3)Gal(b1-4)GlcNAc
# In short: as §1
# [56] = target: GlcNAc(a1-4)Gal(b1-4)GlcNAc(b1-3)Gal(b1-4)[Fuc(a1-3)]GlcNAc(b1-3)Gal(b1-4)[Fuc(a1-3)]GlcNAc
# In short: as §1
# [57] = target: GlcNAc(a1-6)Gal(b1-4)GlcNAc
# In short: as §1
# [58] = target: GlcNAc(b1-2)Gal(b1-3)GalNAc
# In short: as §1
# [59] = target: GlcNAc(b1-2)Gal(b1-3)GlcNAc
# In short: as §1
# [60] = target: GlcNAc(b1-2)Man(a1-3)[GlcNAc(b1-2)Man(a1-6)]Man(b1-4)GlcNAc(b1-4)GlcNAc
# In short: as §1
# [61] = target: GlcNAc(b1-2)Man(a1-3)[GlcNAc(b1-2)Man(a1-6)]Man(b1-4)GlcNAc(b1-4)[Fuc(a1-6)]GlcNAc
# In short: as §1
# [62] = target: GlcNAc(b1-2)Man(a1-3)[GlcNAc(b1-4)][GlcNAc(b1-2)Man(a1-6)]Man(b1-4)GlcNAc(b1-4)GlcNAc
# In short: as §1
# [63] = target: GlcNAc(b1-2)Man(a1-3)[GlcNAc(b1-4)][GlcNAc(b1-2)Man(a1-6)]Man(b1-4)GlcNAc(b1-4)[Fuc(a1-6)]GlcNAc
# In short: as §1
# [64] = target: GlcNAc(b1-2)[GlcNAc(b1-4)]Man(a1-3)[GlcNAc(b1-2)Man(a1-6)]Man(b1-4)GlcNAc(b1-4)GlcNAc
# In short: as §1
# [65] = target: GlcNAc(b1-2)[GlcNAc(b1-4)]Man(a1-3)[GlcNAc(b1-4)][GlcNAc(b1-2)Man(a1-6)]Man(b1-4)GlcNAc(b1-4)GlcNAc
# In short: as §1
# [66] = target: GlcNAc(b1-2)[GlcNAc(b1-4)]Man(a1-3)[GlcNAc(b1-4)][GlcNAc(b1-2)[GlcNAc(b1-6)]Man(a1-6)]Man(b1-4)GlcNAc(b1-4)GlcNAc
# In short: as §1
# [67] = target: GlcNAc(b1-2)[GlcNAc(b1-4)]Man(a1-3)[GlcNAc(b1-4)][GlcNAc(b1-2)[GlcNAc(b1-6)]Man(a1-6)]Man(b1-4)GlcNAc(b1-4)[Fuc(a1-6)]GlcNAc
# In short: as §1
# [68] = target: GlcNAc(b1-2)[GlcNAc(b1-6)]Man(a1-6)[GlcNAc(b1-2)Man(a1-3)]Man(b1-4)GlcNAc(b1-4)GlcNAc
# In short: as §1
# [69] = target: GlcNAc(b1-2)[GlcNAc(b1-6)]Man(a1-6)[GlcNAc(b1-2)Man(a1-3)]Man(b1-4)GlcNAc(b1-4)[Fuc(a1-6)]GlcNAc
# In short: as §1
# [70] = target: GlcNAc(b1-2)[GlcNAc(b1-6)]Man(a1-6)[GlcNAc(b1-4)][GlcNAc(b1-2)Man(a1-3)]Man(b1-4)GlcNAc(b1-4)GlcNAc
# In short: as §1
# [71] = target: GlcNAc(b1-3)Fuc
# In short: as §1
# [72] = target: GlcNAc(b1-3)Gal
# In short: as §1
# [73] = target: GlcNAc(b1-3)Gal(b1-3)GalNAc
# In short: as §1
# [74] = target: GlcNAc(b1-3)Gal(b1-4)Glc
# In short: as §1
# [75] = target: GlcNAc(b1-3)Gal(b1-4)GlcNAc
# In short: as §1
binder,measurement,setting,value
"UEA-I (Ulex europaeus), P22972 (protein) SDDLSFKFKNFSQNGKDLSFQGDASVIETGVLQLNKVGNNLPDETGGIARYIAPIHIWNCNTGEVASFITSFSFFMETSANPKAATDGLTFFLAPPDSPLRRAGGYFGLFEDTKDNDSSYQTVAVEFDTIGSPVNFDDPGFPHIGIDVNRVKSINAERWNKRYGLNNVANVEIIYEASSKTLTASLTYPSDQTSISVTSIVDLKEILPEWVSVGFSGGTYIGRQATHEVLNWYFTSNLINTNS",glycan array binding signal (z-score),[1],-0.009
same,glycan array binding signal (z-score),[2],-0.24
same,glycan array binding signal (z-score),[3],-0.212
same,glycan array binding signal (z-score),[4],-0.204
same,glycan array binding signal (z-score),[5],-0.202
same,glycan array binding signal (z-score),[6],-0.203
same,glycan array binding signal (z-score),[7],-0.228
same,glycan array binding signal (z-score),[8],-0.142
same,glycan array binding signal (z-score),[9],-0.279
same,glycan array binding signal (z-score),[10],-0.33
same,glycan array binding signal (z-score),[11],-0.28
same,glycan array binding signal (z-score),[12],-0.199
same,glycan array binding signal (z-score),[13],-0.098
same,glycan array binding signal (z-score),[14],-0.253
same,glycan array binding signal (z-score),[15],-0.257
same,glycan array binding signal (z-score),[16],-0.235
same,glycan array binding signal (z-score),[17],-0.249
same,glycan array binding signal (z-score),[18],-0.179
same,glycan array binding signal (z-score),[19],-0.201
same,glycan array binding signal (z-score),[20],-0.183
same,glycan array binding signal (z-score),[21],-0.117
same,glycan array binding signal (z-score),[22],-0.168
same,glycan array binding signal (z-score),[23],-0.21
same,glycan array binding signal (z-score),[24],-0.188
same,glycan array binding signal (z-score),[25],-0.248
same,glycan array binding signal (z-score),[26],-0.146
same,glycan array binding signal (z-score),[27],-0.162
same,glycan array binding signal (z-score),[28],0.266
same,glycan array binding signal (z-score),[29],0.872
same,glycan array binding signal (z-score),[30],-0.071
same,glycan array binding signal (z-score),[31],-0.297
same,glycan array binding signal (z-score),[32],-0.272
same,glycan array binding signal (z-score),[33],-0.171
same,glycan array binding signal (z-score),[34],-0.324
same,glycan array binding signal (z-score),[35],-0.269
same,glycan array binding signal (z-score),[36],-0.339
same,glycan array binding signal (z-score),[37],-0.073
same,glycan array binding signal (z-score),[38],-0.167
same,glycan array binding signal (z-score),[39],-0.176
same,glycan array binding signal (z-score),[40],-0.204
same,glycan array binding signal (z-score),[41],-0.151
same,glycan array binding signal (z-score),[42],-0.207
same,glycan array binding signal (z-score),[43],-0.198
same,glycan array binding signal (z-score),[44],-0.197
same,glycan array binding signal (z-score),[45],-0.18
same,glycan array binding signal (z-score),[46],-0.186
same,glycan array binding signal (z-score),[47],-0.298
same,glycan array binding signal (z-score),[48],-0.222
same,glycan array binding signal (z-score),[49],-0.032
same,glycan array binding signal (z-score),[50],-0.11
same,glycan array binding signal (z-score),[51],-0.163
same,glycan array binding signal (z-score),[52],0.215
same,glycan array binding signal (z-score),[53],0.251
same,glycan array binding signal (z-score),[54],0.134
same,glycan array binding signal (z-score),[55],0.394
same,glycan array binding signal (z-score),[56],0.074
same,glycan array binding signal (z-score),[57],-0.213
same,glycan array binding signal (z-score),[58],-0.195
same,glycan array binding signal (z-score),[59],-0.65
same,glycan array binding signal (z-score),[60],-0.246
same,glycan array binding signal (z-score),[61],-0.145
same,glycan array binding signal (z-score),[62],-0.101
same,glycan array binding signal (z-score),[63],-0.076
same,glycan array binding signal (z-score),[64],-0.205
same,glycan array binding signal (z-score),[65],-0.166
same,glycan array binding signal (z-score),[66],-0.221
same,glycan array binding signal (z-score),[67],-0.278
same,glycan array binding signal (z-score),[68],-0.171
same,glycan array binding signal (z-score),[69],-0.211
same,glycan array binding signal (z-score),[70],-0.211
same,glycan array binding signal (z-score),[71],-0.172
same,glycan array binding signal (z-score),[72],-0.215
same,glycan array binding signal (z-score),[73],-0.194
same,glycan array binding signal (z-score),[74],-0.204
same,glycan array binding signal (z-score),[75],-0.206
